Source: the supplement of paper PMC4166925
± gives the standard deviation of the averaged measurements. In all, about 33,000 sequences were measured (“E-score (dimensionless, -0.5 to 0.5)”: median about -0.049, highest 2% from about 0.37 on). The list shows a part of the results.

Each sequence was assayed on T1, PmTbr T-box DNA-binding domain (GST fusion) (assay: PBM E-score of 8-mer (E-score (dimensionless, -0.5 to 0.5)); Tbr is Tbrain of the sea star Patiria miniata (Pm) or the sea urchin Strongylocentrotus purpuratus (Sp); higher = stronger binding preference; most listed sequences are background and not binding sites). Settings: the construct has about 5 more residues each side.
T1 sequence: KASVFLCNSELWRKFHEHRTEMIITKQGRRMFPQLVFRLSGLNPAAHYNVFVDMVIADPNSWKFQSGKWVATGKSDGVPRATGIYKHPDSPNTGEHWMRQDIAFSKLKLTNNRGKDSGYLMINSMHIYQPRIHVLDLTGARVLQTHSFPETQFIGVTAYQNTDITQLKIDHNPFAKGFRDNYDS
Outline: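 GST-fused Tbr T-box DNA-binding domains (the whole T-box plus about five flanking residues) were expressed in BL21 E. coli at 20 °C and purified by glutathione affinity chromatography. Universal Agilent oligonucleotide arrays were made double-stranded by primer extension, incubated with 200 nM protein in PBS (pH 7.5), then scanned and quantified. Every ungapped 8-mer was scored from probe intensities. The Universal PBM Analysis Suite gave each word an enrichment E-score, averaged over duplicate arrays.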

Sequence	PBM E-score of 8-mer
CAAACCAC	-0.0764 ± 0.046
ACATCAAT	-0.0835 ± 0.045
AAACCCAG	0.0108 ± 0.055
ACATCAAC	-0.103 ± 0.097
CCACCAAG	-0.191 ± 0.036
AATAACAC	0.339 ± 0.052
GACCAAGC	-0.142 ± 0.051
ATCAATGC	-0.17 ± 0.0099
AACATCCA	0.00814 ± 0.0029
GGACAAAC	-0.0524 ± 0.016
GAAAAGGA	-0.137 ± 0.031
ATAGCCAG	-0.165 ± 0.075
CCTGATCG	-0.0604 ± 0.032
AAATTGAT	0.111 ± 0.024
ATTTGTGA	0.201 ± 0.064
TCCTGCCA	0.183 ± 0.019
GAGCTAAA	0.0372 ± 0.018
ACCTCCAA	0.0365 ± 0.013
ATGGAAAA	-0.18 ± 0.071
ACGGGTCA	-0.103 ± 0.13
AAAGCTTT	-0.081 ± 0.092
AGTACGGA	-0.226 ± 0.0099
ACTCAGAC	0.0474 ± 0.069
AAAACAGT	-0.172 ± 0.018
ACAGCCCG	0.0265 ± 0.039

Sequence	PBM E-score of 8-mer
ATAGTCTC	-0.045 ± 0.035
ACGCCTTG	0.283 ± 0.03
AGTCTGAA	-0.179 ± 0.0018
AGAGAGAA	-0.0727 ± 0.0041
AAAAGGCC	-0.138 ± 0.02
CTGATGGA	-0.137 ± 0.059
CCGGCTGC	-0.125 ± 0.1
CAATAAAA	-0.0746 ± 0.04
AATCTCTG	-0.131 ± 0.068
AGAGGAAA	0.0946 ± 0.058
CTGTAGAA	-0.127 ± 0.037
GAGTCAGA	-0.238 ± 0.018
CCAATTAA	0.00263 ± 0.015
AAAAACGG	-0.0215 ± 0.026
AGTGTTAA	0.433 ± 0.017
AACTCCGA	-0.0873 ± 0.035
ACTAACAG	0.216 ± 0.045
ACACAGAG	-0.0201 ± 0.079
CCGTTATA	-0.0748 ± 0.038
ATGCATTA	-0.11 ± 0.13
GATAGCAA	0.202 ± 0.052
AGGACAAT	-0.237 ± 0.13
ACTGAGCC	-0.306 ± 0.061
CAGAGAGA	-0.0489 ± 0.017
AAATCCAA	-0.0951 ± 0.03

Sequence	PBM E-score of 8-mer
ATAACTGG	-0.194 ± 0.048
GAAGGAGA	-0.276 ± 0.065
CTAGCAAG	0.0488 ± 0.014
GGAGAACA	-0.137 ± 0.0019
CAAACCTG	0.0391 ± 0.011
GGTAAAAC	-0.122 ± 0.069
ACAATCCG	-0.0812 ± 0.0072
ATGGAGGA	-0.217 ± 0.015
CTGAGCGA	-0.0671 ± 0.078
AGGGCGCA	-0.11 ± 0.083
GAGGCCTA	-0.176 ± 0.014
CACGTATC	0.107 ± 0.0078
CAGGGTCA	-0.135 ± 0.02
CAAGGTGG	0.323 ± 0.03
CACAACGA	0.0942 ± 0.03
CCTTGTGA	0.0952 ± 0.026
CGCTGCCC	0.0291 ± 0.018
CGGTTTCA	0.163 ± 0.071
AGAAATTC	-0.0651 ± 0.031
AGCTAAGG	-0.172 ± 0.11
ACCACCAC	0.0224 ± 0.049
AAATCGCA	0.297 ± 0.0062
CAGTGCCG	-0.0615 ± 0.022
GCAGATTA	-0.0303 ± 0.022
CGGGGTAG	-0.189 ± 0.11

Sequence	PBM E-score of 8-mer
AATTATTC	-0.119 ± 0.077
AAGCTGCA	0.137 ± 0.011
AAGCCTCT	-0.0496 ± 0.045
AAGGTGAG	0.452 ± 0.0046
CAAATTGA	0.0471 ± 0.01
TACGAACA	-0.0354 ± 0.071
CAACCTCA	0.133 ± 0.049
CTACTGCC	-0.05 ± 0.057
GCCCTTGA	-0.276 ± 0.04
CGGAAGAA	-0.112 ± 0.026
CCCGCAAC	-0.0891 ± 0.086
TAGATGAA	-0.174 ± 0.066
AAAAACTG	-0.118 ± 0.086
CGGCAGGA	-0.0783 ± 0.02
GAGGCTAA	-0.0691 ± 0.029
ACGCTAGT	0.036 ± 0.023
CGGTGGCC	-0.258 ± 0.033
GCCACTTA	0.232 ± 0.021
TACGACTA	-0.144 ± 0.023
ATCTATTG	-0.176 ± 0.092
GAGGTGCC	0.409 ± 0.03
GGGAATGA	-0.029 ± 0.011
AGACGCGG	-0.22 ± 0.049
CCCCACTA	0.0367 ± 0.057
CAGCATAC	-0.00656 ± 0.045

Sequence	PBM E-score of 8-mer
CAGAGCTC	-0.302 ± 0.05
GCGCGACA	0.36 ± 0.023
GCACCAAC	0.186 ± 0.014
GAGTTACC	0.122 ± 0.013
ACGGTTCA	0.0139 ± 0.058
AGGCACAA	-0.122 ± 0.011
AGAGATCT	-0.0691 ± 0.051
GAACCGTC	-0.07 ± 0.048
ACGGGCTC	-0.099 ± 0.03
ACAACGCG	0.162 ± 0.032
AGGGAACC	-0.338 ± 0.013
CGATCCTA	-0.154 ± 0.054
GAGCTCGC	0.0675 ± 0.032
GAGTGTAA	0.169 ± 0.061
AAGGAAAA	-0.268 ± 0.071
CCAGTATC	-0.116 ± 0.094
AAGGCGGC	0.0998 ± 0.036
AGGGCAAT	-0.24 ± 0.022
AGGGTAAA	-0.131 ± 0.048
CCAATCAA	-0.159 ± 0.0096
AACTTAAT	-0.0144 ± 0.063
ACATAGTA	-0.105 ± 0.037
AACATATG	0.00926 ± 0.035
CCTTGAGA	-0.151 ± 0.027
CTATGCGA	0.106 ± 0.0032

Sequence	PBM E-score of 8-mer
CATGACCA	-0.244 ± 0.0078
ATAATCAT	-0.0737 ± 0.017
ACCAGATC	0.124 ± 0.021
GGCTAGCA	0.144 ± 0.016
CCCGTGCG	-0.102 ± 0.0041
ATGACGCC	0.2638 ± 0.0024
ACCTACCT	0.041 ± 0.034
ATCGAACG	0.0189 ± 0.029
AAATATGA	-0.117 ± 0.04
ACATCTGC	-0.0416 ± 0.016
CTGAGGAC	-0.0615 ± 0.0094
GGTGTCGA	0.461 ± 0.0086
AGAACAGG	-0.154 ± 0.0051
CATAATCC	-0.235 ± 0.087
TTGTTAAA	0.199 ± 0.035
GCGCAGTA	-0.152 ± 0.044
GATCGTCC	-0.304 ± 0.059
ACTACGTC	-0.248 ± 0.03
GAATGGGA	-0.214 ± 0.011
ATATCTTC	-0.0858 ± 0.014
CTTGCCCC	-0.0461 ± 0.026
CCGAATTA	-0.204 ± 0.048
CACGGTTC	0.129 ± 0.07
AAGCACCC	-0.16 ± 0.029
CTTTAAAA	-0.131 ± 0.048

Sequence	PBM E-score of 8-mer
AATCTGAG	-0.0214 ± 0.071
CAATACGA	-0.103 ± 0.052
ACGGTCTG	-0.0405 ± 0.017
GTGCCCAA	-0.132 ± 0.063
GAGTATAC	-0.192 ± 0.0026
CAGCTACA	-0.00135 ± 0.032
GCCTTGCC	-0.0503 ± 0.012
GACTAAGC	-0.311 ± 0.044
CGGTTAGC	0.178 ± 0.065
CGTTAATA	-0.0106 ± 0.061
ATTAAGTA	-0.154 ± 0.096
GGGACAAC	-0.163 ± 0.034
CAAGCTTA	-0.0937 ± 0.0022
GACTGTCC	-0.13 ± 0.072
GCCGGCCC	-0.322 ± 0.061
GGGAAAAC	0.0427 ± 0.0043
CAATCAGG	0.00619 ± 0.066
TATGACAA	0.0436 ± 0.061
ACCATTCG	0.233 ± 0.04
CGTAAGTC	-0.127 ± 0.046
ATTGCAAA	-0.103 ± 0.046
ATTTGTTG	0.0235 ± 0.013
